# From PubChem BioAssay AID1030 (National Center for Advancing Translational Sciences (NCATS), 2008)
# Out of some 220,000 compounds screened, about 16,000 (7.3%) were called active. Inconclusive results, whose numbers are uncertain, are shown with a selection of clear calls. Calls come from the whole dose curve; as a rule, active = well fitted inhibition curve with a large enough effect (not every such curve was filed as active); inconclusive = small, poorly fitted or top-dose-only effect, or another doubt; inactive = no such curve, though single readings can be large or run the other way. Potencies of inconclusive entries are left out as doubtful fits. Some compounds were tested as several samples or in several runs, with calls that do not always agree.
# Target: Aldehyde dehydrogenase 1A1 (Homo sapiens) (UniProt P00352)
# Assay: qHTS Assay for Inhibitors of Aldehyde Dehydrogenase 1 (ALDH1A1);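 for activity, negative = inhibition: plate controls were no enzyme wells and a reference inhibitor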
# Conditions: Purified ALDH1A1, NADH fluorescence, propionaldehyde substrate; series mostly up to 75.3 µM; activity, negative = inhibition: at the top concentration
# Potency is the fitted concentration of half-maximal effect; tags give direction and shape of the fitted curve.
# Sequence of UniProt P00352 (P00352 whole entry, looked up): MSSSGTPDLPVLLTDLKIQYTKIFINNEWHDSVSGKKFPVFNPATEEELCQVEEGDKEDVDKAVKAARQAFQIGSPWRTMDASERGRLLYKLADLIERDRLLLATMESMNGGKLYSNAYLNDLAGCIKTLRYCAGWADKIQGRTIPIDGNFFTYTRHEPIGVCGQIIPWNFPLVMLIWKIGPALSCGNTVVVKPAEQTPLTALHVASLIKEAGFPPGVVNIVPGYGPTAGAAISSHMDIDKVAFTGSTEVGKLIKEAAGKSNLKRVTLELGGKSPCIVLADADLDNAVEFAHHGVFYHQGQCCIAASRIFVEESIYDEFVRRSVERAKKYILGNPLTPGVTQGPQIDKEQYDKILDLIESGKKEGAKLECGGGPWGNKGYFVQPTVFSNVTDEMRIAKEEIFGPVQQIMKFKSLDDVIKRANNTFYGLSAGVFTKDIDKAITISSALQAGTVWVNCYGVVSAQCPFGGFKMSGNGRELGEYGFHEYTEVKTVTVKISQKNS
SMILES,Potency,"activity, negative = inhibition"
Cc1ccc(-n2c(C)nc3oc4ccccc4c(=O)c3c2=O)cc1,active: 28.2 µM,–
COc1ccc(CN2C(=O)CN(C3CCCCCC3)C(=O)C2c2ccc(OC)c(OC)c2)cc1 (configuration not stated),"inconclusive [inhibitor, single point]",–
CCN1C(=S)SC(=O)C1=C1C=C(C)N(CCO)C(C)=C1,active: 15.8 µM,–
Cc1nc2ccccc2c(=O)n1/N=C/c1c(O)ccc2ccccc12,–,inactive: 5.25%
O=S(=O)(c1cnc(Cl)c(Br)c1)N1CCCCCC1,active: 8.91 µM,–
COCCCn1c(C2CCCCC2)nc2oc3cc(OC)ccc3c(=O)c2c1=O,"inconclusive [inhibitor, single point]",–
Cc1ccc(-n2c(-c3cccc(C)c3)n[nH]c2=S)cc1,–,inactive: 2.02%
CNC(=S)N(CCc1c(C)[nH]c2ccc(C)cc12)Cc1ccco1,–,inactive: 1.05%
O=c1c(-c2cccs2)nc2cnc(N3CCOCC3)nc2n1CCc1ccccc1,"inconclusive [inhibitor, partial curve]",–
COc1ccc(CCN=C(N)NS(=O)(=O)c2ccc(C)cc2)cc1,"inconclusive [inhibitor, partial curve]",–
C/C(CCc1ccco1)=N\NC(=O)CNc1cccc2ccccc12,"inconclusive [inhibitor, partial curve]",–
Cc1cc2c(cc(C(=O)OCC(=O)NCc3cccs3)n2C(C)C)o1,active: 18.9 µM,–
O=C(CN1C(=O)COc2ccccc21)NCCN1CCc2ccccc2C1,"inconclusive [inhibitor, single point]",–
Cc1ccc(S(=O)(=O)N2CCN(CC(=O)N/N=C\c3ccccn3)CC2)cc1,"inconclusive [inhibitor, single point]",–
CC1(C)Oc2ccc(/C=C/C(=O)N3CCOCC3)c(O)c2C(N2CCOCC2)C1O (configuration not stated),"inconclusive [inhibitor, single point]",–
Cc1ccc2nsnc2c1NC(=S)NC(=O)c1ccco1,"inconclusive [inhibitor, single point]",–
O=C(CSc1ncnc2c1oc1ccccc12)c1cccs1,–,inactive: 9.58%
Nc1nc(SCc2ccccc2)c2ncn(Cc3ccccc3)c2n1,"inconclusive [inhibitor, partial curve]",–
COc1ccc(CNC(=O)CCSCc2cccc(Cl)c2)c(OC)c1,"inconclusive [inhibitor, partial curve, poor fit]",–
Nc1ncnc2c1c(I)cn2C1OC(CO)C(O)C1O (configuration not stated),active: 8.91 µM,–
O=C(CCNS(=O)(=O)c1cccc2nsnc12)N1CC(=O)N(CCc2ccccc2)C(=O)C1,–,inactive: 8.46%
Cc1cccc(NC(=S)NNC(=O)c2csc3c2CCCC3)c1,"inconclusive [inhibitor, partial curve]",–
COCCN1C(=O)C(CC(=O)Nc2ccccc2)SC1=Nc1ccc(OC)cc1 (configuration not stated),–,inactive: -7.44%
O=Nc1c(O)n(Cc2cccc(Cl)c2)c2ccccc12,"inconclusive [inhibitor, single point]",–

SMILES,Potency,"activity, negative = inhibition"
CC1(C)Cc2c(C#N)c(OCC(=O)c3ccccc3)nc(-c3ccoc3)c2CO1,active: 0.282 µM,–
NC(=O)C1CCN(C2CC(=O)N(c3ccc(F)c(Cl)c3)C2=O)CC1 (configuration not stated),active: 25.1 µM,–
Cc1c(Cl)c([N+](=O)[O-])nn1CCCC(=O)Nc1cccnc1,"inconclusive [inhibitor, single point]",–
CCOC(=O)C(CC)/C(C)=N/NC(=O)c1ccccc1[N+](=O)[O-] (configuration not stated),"inconclusive [inhibitor, single point]",–
CCCCNC(=O)c1ccc(/C=C2\Oc3ccccc3N(C)C2=O)cc1,"inconclusive [inhibitor, partial curve]",–
CCC(=O)N=C1SC2CS(=O)(=O)CC2N1c1cccc(OC)c1 (configuration not stated),"inconclusive [inhibitor, single point]",–
CCOc1cc(S(=O)(=O)Nc2ccc(Cl)cn2)ccc1Cl,–,inactive: -12.1%
CCc1cc(-c2n[nH]c(=S)n2Cc2ccccc2)cs1,active: 5.62 µM,–
Clc1ccc(-c2nc(/C=N/N3CCOCC3)c3ccccn23)cc1,"inconclusive [inhibitor, partial curve]",–
Cc1ccc(OCC(=O)N2CCN(C(=O)c3cccc(F)c3)CC2)cc1,"inconclusive [inhibitor, single point]",–
CC(C)OC(=O)CCc1nc2ccccc2[nH]c1=O,"inconclusive [inhibitor, partial curve]",–
CCc1ccc(-n2c(Cn3nc(C(F)(F)F)cc3C)n[nH]c2=S)cc1,"inconclusive [inhibitor, single point]",–
CCC1NC(=S)NC(C)=C1C(=O)c1ccccc1 (configuration not stated),"inconclusive [inhibitor, partial curve]",–
CN(C)CCCN(C(=O)c1ccco1)c1nc2ccc(Cl)cc2s1,–,inactive: -0.49%
COc1ccc(-n2c(SCC#N)nnc2-c2ccc(NS(=O)(=O)c3ccc(C)cc3)cc2)cc1,"inconclusive [inhibitor, single point]",–
COC(=O)C1=C(C)NC(C)=C(C(=O)OC)C1C(=O)OCC(=O)N1c2ccccc2CC1C (configuration not stated),"inconclusive [inhibitor, single point]",–
Cc1c(N2C(=O)/C(=C/c3ccccc3)SC2=S)c(=O)n(-c2ccccc2)n1C,–,inactive: 4.36%
Cc1c(Br)ccc(NC(=O)CCN2C(=O)C3C4CCC(C4)C3C2=O)c1C (configuration not stated),active: 31.6 µM,–
CC(C)OC(=O)c1cccc(C(=O)Nc2cccc(NC(=O)c3cccc(C(=O)OC(C)C)n3)n2)n1,"inconclusive [inhibitor, partial curve]",–
COc1ccc(C(=O)NC(C(=O)NCC(=O)Nc2c(C)cccc2C)C(C)C)cc1 (configuration not stated),–,inactive: 16%
C#CCN1C(=O)C(O)(CC(=O)c2ccc(OC)c(OC)c2)c2ccccc21 (configuration not stated),active: 0.355 µM,–
CCO[C@H]1OC(C(=O)NCc2nc3ccccc3[nH]2)=C[C@@H](C2CCCCC2)[C@@H]1CCCO,–,inactive: 8.16%
CCn1c(=N)n(CC(=O)C(C)(C)C)c2ccccc21,"inconclusive [inhibitor, partial curve]",–
COC(=O)c1ccc(C(=O)OC)c(NC(=O)COC(=O)C2CC2C)c1 (configuration not stated),"inconclusive [inhibitor, partial curve, poor fit]",–

SMILES,Potency,"activity, negative = inhibition"
CCOC(=O)CCc1c(C)nc(-n2[nH]c(C)c(CCO)c2=O)[nH]c1=O,"inconclusive [inhibitor, single point]",–
NC(C(=O)NC1C(=O)N2C(C(=O)O)=C(Cl)CSC12)c1ccccc1 (configuration not stated),active: 15.8 µM,–
C#CCOCCOCCOCCNc1nc(N2CCN(C(=O)[C@H]([C@@H](C)CC)n3cc([C@@H](N)CC(C)C)nn3)CC2)nc(N2CCN(C(=O)[C@H](Cc3ccc(O)cc3)n3cc([C@@H](N)C(C)CC)nn3)CC2)n1 (some centres not stated),"inconclusive [inhibitor, full curve]",–
CCOC(=O)N1CCN(C(=O)c2ccccc2-c2ccccc2)CC1,–,inactive: -16.1%
O=C(CNc1ccc(Oc2ccccc2)cc1)N1CCOCC1,"inconclusive [inhibitor, single point]",–
O=C(Cn1cnc2cc([N+](=O)[O-])ccc2c1=O)NCc1ccccc1,"inconclusive [inhibitor, single point]",–
N#Cc1cc2c(nc1SCC(=O)O)CCCCC2,"inconclusive [inhibitor, partial curve]",–
CCOc1ccc(/C=N/Nc2ccccn2)cc1OC,–,inactive: 5.21%
CCCc1cc(C(=O)NCCc2ccc(OC)c(OC)c2)no1,"inconclusive [inhibitor, partial curve]",–
Cc1ccc(CNc2ccc(O)cc2)cc1,active: 10 µM,–
N#CCCn1cnc2c1NC=NC2Cl (configuration not stated),–,inactive: -4.17%
Cc1cc(C)c2[nH]c(=O)c(CN(Cc3cccs3)C(=S)NCC3CCCO3)cc2c1 (configuration not stated),"inconclusive [inhibitor, single point]",–
Cc1ccnc(N=Cc2c(O)ccc3oc4c(c23)CCCC4)c1,"inconclusive [inhibitor, single point]",–
O=C(/C=C/c1cccnc1)c1cc(F)ccc1O,"inconclusive [inhibitor, single point]",–
Cc1ccc2cc(CNC(C)(C)C)c(=O)[nH]c2c1,"inconclusive [inhibitor, single point]",–
CC(C)(C)c1ccc(-c2nc3n(c(=O)c2C#N)CCS3)cc1,"inconclusive [inhibitor, partial curve]",–
O=C(CSc1c(Cl)cccc1Cl)NC1CCCc2ccccc21 (configuration not stated),–,inactive: 9.41%
COc1ccccc1-n1c(-c2cccnc2)n[nH]c1=S,"inconclusive [inhibitor, single point]",–
CCN(CC)c1ccc(/C=N/NC(=O)c2cnccn2)cc1,active: 22.4 µM,–
Cn1c(/C(C#N)=C/C2CC=CCC2)nc2ccccc21 (configuration not stated),"inconclusive [inhibitor, partial curve]",–
O=c1oc2ccccc2cc1-c1ccc(O)cc1,"inconclusive [inhibitor, single point]",–
COC(=O)CCC(=O)OC1(C)C(=O)C=C2C=C(C3CC3)N(CCCCO)C=C2C1=O (configuration not stated),–,inactive: 8.11% [at 13.5 µM]
Cc1sc2nc(CN3CCOCC3)nc(NS(=O)(=O)c3ccc4c(c3)OCCO4)c2c1C,active: 1.26 µM,–
Cc1cc(O)ccc1NC(=O)CCN1C(=O)c2ccc([N+](=O)[O-])cc2C1=O,active: 11.2 µM,–
